# In all, about 310,000 compounds went through this assay and about 2,200 (0.71%) showed an effect of 50% or more. The effect is printed as a negative number. Some of the results follow.
# Target: human ether-à-go-go-related gene (hERG) potassium channel (human, UniProt Q12809)
# Assay: primary screen, population patch clamp on CHO cells stably expressing hERG
# human ether-à-go-go-related gene (hERG) potassium channel, sequence (Q12809 whole entry, looked up): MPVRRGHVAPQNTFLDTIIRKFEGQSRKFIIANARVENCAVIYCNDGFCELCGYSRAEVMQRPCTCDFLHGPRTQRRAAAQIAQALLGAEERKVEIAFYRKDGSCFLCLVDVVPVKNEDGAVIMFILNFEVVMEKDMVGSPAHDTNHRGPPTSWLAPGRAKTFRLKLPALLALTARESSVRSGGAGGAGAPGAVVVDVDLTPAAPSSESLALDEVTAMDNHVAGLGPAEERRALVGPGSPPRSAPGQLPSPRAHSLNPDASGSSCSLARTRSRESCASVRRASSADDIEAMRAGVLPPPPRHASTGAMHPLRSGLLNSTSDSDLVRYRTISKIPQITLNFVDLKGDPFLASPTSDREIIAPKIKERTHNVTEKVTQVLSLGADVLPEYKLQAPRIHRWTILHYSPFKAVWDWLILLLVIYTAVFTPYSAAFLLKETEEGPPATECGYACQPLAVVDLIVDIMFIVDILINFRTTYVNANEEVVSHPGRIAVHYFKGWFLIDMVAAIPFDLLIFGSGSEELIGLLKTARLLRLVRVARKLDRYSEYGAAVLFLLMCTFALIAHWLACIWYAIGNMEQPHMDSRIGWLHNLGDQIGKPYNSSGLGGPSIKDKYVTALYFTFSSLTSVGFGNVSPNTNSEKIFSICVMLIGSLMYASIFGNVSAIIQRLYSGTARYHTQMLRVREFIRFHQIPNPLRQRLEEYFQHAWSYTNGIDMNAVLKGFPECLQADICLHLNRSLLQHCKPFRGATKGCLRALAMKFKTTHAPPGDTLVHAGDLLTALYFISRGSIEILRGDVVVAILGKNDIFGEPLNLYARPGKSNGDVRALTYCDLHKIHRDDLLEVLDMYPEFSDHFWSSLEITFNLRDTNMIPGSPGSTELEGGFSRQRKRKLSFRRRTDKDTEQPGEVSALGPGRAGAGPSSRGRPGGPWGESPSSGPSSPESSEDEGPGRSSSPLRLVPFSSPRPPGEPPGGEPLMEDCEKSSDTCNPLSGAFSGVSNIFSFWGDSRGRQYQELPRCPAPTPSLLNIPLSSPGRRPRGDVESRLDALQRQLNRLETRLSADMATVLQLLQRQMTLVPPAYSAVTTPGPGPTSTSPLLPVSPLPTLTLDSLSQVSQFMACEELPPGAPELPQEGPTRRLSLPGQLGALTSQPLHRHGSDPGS
row,Compound,"hERG current change (%, negative = inhibition) at 1uM [%]"
1,CCCCn1c(N)c(N(CCOC)C(=O)CN(C)S(=O)(=O)c2ccc(C)cc2)c(=O)[nH]c1=O,14.3
2,COc1cccc(C(=O)Nn2c(-c3cccs3)nc3ccccc3c2=O)c1OC,13.8
3,O=c1cc(CN2CCN(c3ccccc3F)CC2)c2cc3c(cc2o1)CCCC3,11.5
4,COC(=O)c1ccccc1NC(=O)COC(=O)CSc1nnc(N)s1,11.9
5,O=C(COC(=O)C1CC1)Nc1nc(-c2ccc(F)c(F)c2)cs1,16.8
6,CCOC(=O)CC(=O)CSc1ncnc2c1nnn2-c1ccc(OC)cc1,-0.234
7,O=C(CCC(=O)Nc1ccccc1)N/N=C/C=C/c1ccccc1,23.9
8,COC(=O)c1c(C)nc(C)c(C(=O)OC)c1-c1ccc(OC)cc1,13.4
9,Cc1ccc(CN2CCN(CC(=O)N/N=C/c3ccc(C)o3)CC2)cc1,-25.3
10,O=C(Nc1nnc(-c2ccccc2Cl)o1)c1cccnc1,6.37
11,CN(C)S(=O)(=O)N1CCN(CC(=O)Nc2ccc(Br)cc2)CC1,-6.35
12,Cc1ccc(S(=O)(=O)N(C)/N=C/C=C/c2ccccc2)cc1,13.1
13,Cc1cc(F)ccc1S(=O)(=O)Nc1c(C)n(C)n(-c2ccccc2)c1=O,15.4
14,O=C1Nc2ccccc2OC1CC(=O)N1CCOCC1 (centres unmarked),3.88
15,Cc1cc(OC(C)C(=O)N2CCN(c3ccccc3)CC2)c2c(C)c(C)c(=O)oc2c1 (centres unmarked),13.5
16,O=C(CN1C(=O)NC2(CCCCCCC2)C1=O)N1CCOCC1,-3.6
17,COc1cc(C(F)(F)F)ccc1C(=O)NCCc1ccco1,5.79
18,CN(C)c1ccc(NC(=O)Nc2ccc3snnc3c2)cc1,10.2
19,COc1ccc(C(=O)NCc2ccco2)cc1S(=O)(=O)N1CCOCC1,6.32
20,Cc1nc(-c2cccc(NC(=O)c3ccco3)c2)cs1,10
21,COc1ccc(CNS(=O)(=O)c2cn(C)c(=O)n(C)c2=O)cc1,17.3
22,O=S(=O)(c1ccc(Cl)s1)N1CCc2ccccc2C1,10.7
23,CCc1ccc(C(C(=O)NC2CCCC2)N(CCOC)C(=O)CCC(=O)Nc2cc(C)on2)cc1 (centres unmarked),8.68

row,Compound,"hERG current change (%, negative = inhibition) at 1uM [%]"
1,CC(C)NC(=O)c1ccc(-c2ccc(Cl)c(C(F)(F)F)c2)o1,9.75
2,CC(Sc1nnnn1-c1ccccc1)C(=O)Nc1ccccc1-c1ccccc1 (centres unmarked),5.44
3,Cc1cc(C)c(C)c(S(=O)(=O)N2CCN(C(=O)CNC(=O)c3ccco3)CC2)c1C,-0.97
4,O=C(Nc1ccc(Cl)cc1)N(Cc1nc2ccccc2c(=O)[nH]1)Cc1cccs1,0.353
5,CCOc1cc(N2CCOCC2)c(OCC)cc1NC(=O)c1ccc(C)cc1,17.1
6,Br.Clc1ccc2nc(CN3CCCc4ccccc43)cn2c1,12.6
7,O=C(CSc1nnc(NC(=O)c2ccco2)s1)Nc1ccccc1Br,3.79
8,O=C(Nc1nnc(-c2ccccc2Cl)o1)c1ccco1,8.75
9,CC1Cc2ccccc2N1S(=O)(=O)c1cnc(Cl)c(Br)c1 (centres unmarked),10.7
10,O=S(=O)(Nc1ccc(-c2cn3ccccc3n2)cc1)c1ccccc1,0.612
11,CCOC(=O)c1ccc(N2C(=O)CC(N3CCOCC3)C2=O)cc1 (centres unmarked),-1.93
12,CC(NC(=O)c1ccccc1Cl)c1nnc(SCC(=O)Nc2ccc(C(=O)O)cc2)n1C (centres unmarked),10.2
13,COc1ccc(S(=O)(=O)N2CCC(C(=O)Nc3ccccc3C)CC2)c2cccnc12,5.5
14,Cc1cccc(C(=O)Nc2ccc(NC(=O)c3ccccc3)cc2)c1,10.9
15,COc1ccccc1NC(=S)NC(NC(=O)C(C)C)C(Cl)(Cl)Cl (centres unmarked),14
16,N#Cc1ccc(OCC(=O)OCCCOC(=O)COc2ccc(C#N)cc2)cc1,-13.2
17,Cc1[nH]c2ccccc2c1SCC(=O)NC1CCCCC1,19.7
18,CCCN1C(=O)c2cc(C(=O)NCc3ccc(OC)cc3)ccc2C1O (centres unmarked),-0.313
19,CCOc1ncccc1C(=O)Nc1ccc2c(c1)OCO2,2.38
20,COc1cccc(C(=O)CN(C(=O)c2ccc(Cl)c(Cl)c2)N2C(=O)c3ccccc3C2=O)c1,-5.42
21,COc1ccc(/C(C)=N\O)cc1OC,6.66
22,O=S(=O)(c1ccccc1)N1CCC(c2ccccc2)CC1,20.7
23,CCCN(C(=O)Cc1nc(N)n[nH]1)C1(C(=O)Nc2c(C)cccc2C)CCCCC1,9.95

row,Compound,"hERG current change (%, negative = inhibition) at 1uM [%]"
1,Cc1c(C(=O)c2ccc(Br)cc2)c(=O)n(C)c(=O)n1C,13.6
2,O=C(COc1c(Cl)cccc1Cl)NN1C(=O)CSC1=S,9.68
3,COc1ccc(CCNCc2sccc2C)cc1OC.Cl,9.67
4,COc1ccc(C(=O)c2coc3ccc(OC(C)=O)cc23)cc1,20.8
5,COc1cccc(C(=O)Nc2cccc(-c3ccc(N4CCOCC4)nn3)c2)c1OC,10.6
6,COc1ccc(Cl)cc1N=Cc1c(O)cc(C)oc1=O,11
7,O=C(O)CNC(=O)c1ccccc1Br,11.6
8,Cc1nn(-c2ccccc2)c(N2CCCC2)c1/C=N/NC(=O)c1cc2ccccc2cc1O,-2.01
9,O=C(c1ccccc1)N(CCO)Cc1cc2cc3c(cc2[nH]c1=O)OCCO3,13.9
10,Cc1ccc(S(=O)(=O)N2CCC(C(=O)OCC(=O)N(C)Cc3ccccc3)CC2)cc1C,5.61
11,Fc1ccc(/C=N/c2c(-c3ccc(F)cc3)nc3n2CCS3)cc1,3.18
12,CCc1nc(-c2ccc(OC)c(OC)c2)cc2cc(OC)c(OC)cc12,14.2
13,CCC(C)(C)NC(=O)CCn1c(-c2ccccc2)cc(C(C)=O)c1C,5.91
14,CCc1nnc(N/N=C/c2ccc(N3CCC(C)CC3)c([N+](=O)[O-])c2)n1N,8.15
15,COc1ccccc1NC(=O)Nc1ccc(C)cn1,20.8
16,C/C=C/C(=O)N1c2ccc(C)cc2C(C)=CC1(C)C,6.83
17,O=C1Nc2ccccc2C(c2ccccc2)=NC1O (centres unmarked),11.5
18,O=C(N/N=C/c1oc(O)c2ccccc12)c1ccccc1,18.6
19,COc1ccc(CCNC(=O)CCS(=O)(=O)c2ccc3c(c2)CCN3C(C)=O)cc1OC,5.21
20,COc1ccc(C(=O)Nc2ccccc2)cc1S(=O)(=O)Nc1cc(C)on1,3.83
21,CCOc1cc(S(=O)(=O)NCc2ccc3c(c2)OCO3)ccc1F,10.6
22,CCCCN(C)C(=O)CCC(=O)Nc1ccc2nc(N3CCN(C)CC3)cc(C)c2c1,4.32
23,COc1ccc(C2Oc3ccccc3C3=C2C(c2cccs2)n2ncnc2N3)cc1 (centres unmarked),-6.5

row,Compound,"hERG current change (%, negative = inhibition) at 1uM [%]"
1,Cc1ccc(C)c2[nH]c(=O)c(CN(Cc3ccc4c(c3)OCO4)Cc3nnnn3Cc3ccco3)cc12,1.76
2,O=C(Nc1cccc(-n2cnnn2)c1)c1ccco1,8.04
3,CCOc1cc(-c2noc(CCC(=O)NCCc3ccccc3)n2)ccc1OC,14
4,COc1ccc(NC(=O)c2cncc(Br)c2)cc1S(=O)(=O)N1CCCCC1,6.65
5,COc1ccc(OC)c(N=C(N)N=C(N)N)c1,6.95
6,O=C(Cc1csc(-c2ccccc2)n1)NCc1ccc(F)cc1,4.14
7,COC(=O)c1cc(C(=O)OC)cc(N2C(=O)CN=C2Nc2nc(C)cc(C)n2)c1,8.41
8,O=C(/C=C/Nc1ccccc1)C(F)(F)F,5.89
9,Cc1ccc(S(=O)(=O)c2cc(O)ccc2O)cc1C,3.35
10,Nc1nonc1N/N=C\c1ccccc1,3.26
11,O=C1NC2(CCc3ccccc32)C(=O)N1CCOc1ccc(Cl)cc1 (centres unmarked),11.2
12,O=C(NCc1cccs1)c1cc(-c2ccncc2)nc2ccc(Br)cc12,13.2
13,CCOC(=O)C1(Cc2ccc(Cl)cc2)CCN(C(=O)c2ccoc2)CC1,-1.32
14,Cc1ccc(C(=O)O/N=C(\N)c2ccccc2)c(Cl)c1,4.28
15,CC(C(=O)N1CCN(Cc2ccccc2)CC1)c1ccc([N+](=O)[O-])cc1 (centres unmarked),-1.49
16,CCCCC(=O)Nc1ccc(C(=O)NNC(=O)c2ccccc2Br)cc1,-6.35
17,CCOC(=O)C(C(=O)OCC)C(Nc1cccc(Br)c1)c1ccccc1 (centres unmarked),14.1
18,COc1ccc(-c2noc(-c3ccccc3C(=O)Nc3cccnc3)n2)cc1OC,0.425
19,Nc1c(S(=O)(=O)c2ccccc2)cnc2c(-c3ccc(F)cc3)cnn12,0.0455
20,CCCn1cc(NC(=O)c2cc(-c3ccccc3)on2)cn1,-0.382

# — article PMC4336329 (PLoS ONE, 2015)
